Test results from the BET-seq Pho4 binding data (Le et al. 2018).
Some of the results follow. Values were computed here from the reads of four pooled replicates and scatter widely.

molecular target: T1, Pho4 (S. cerevisiae) (UniProt P07270); assay: relative binding free energy (BET-seq); higher = weaker binding; details: reference: library average
T1 sequence: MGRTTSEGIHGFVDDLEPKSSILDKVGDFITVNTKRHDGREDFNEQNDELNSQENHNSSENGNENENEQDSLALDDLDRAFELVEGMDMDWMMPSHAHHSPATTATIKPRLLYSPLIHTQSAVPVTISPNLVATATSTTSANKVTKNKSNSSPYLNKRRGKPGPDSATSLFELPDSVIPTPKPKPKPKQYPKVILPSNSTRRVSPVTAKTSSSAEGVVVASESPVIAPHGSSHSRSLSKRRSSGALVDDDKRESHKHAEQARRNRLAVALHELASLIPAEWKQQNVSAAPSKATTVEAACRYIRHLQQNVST

Sequence	relative binding free energy [kcal/mol]
GGTAACACGTGGCATG	-0.06
ATGGTCACGTGCGTGG	0.04
AGGGGCACGTGTTGCC	-0.12
GCTAGCACGTGTAGTG	0.03
AAGTACACGTGGTTAG	-0.02
TTTTTCACGTGACTTA	0.19
GGTAGCACGTGGCATG	-0.19
CTGGTCACGTGAGTAG	0.36
GTCGTCACGTGGCATG	0.19
ATCGTCACGTGGTTGA	0.08
GGTTTCACGTGAGGCT	0.42
CGAAGCACGTGGTGTA	-0.17
TTTACCACGTGTTTGA	0.06
TGTGTCACGTGGGCAA	-0.03
GTGTGCACGTGCGTCA	-0.13
GGGTGCACGTGGTGGT	-0.02
TAAGTCACGTGCGTGT	0.11
GTGTGCACGTGAATAA	0.11
GTGGTCACGTGGTGCT	-0.01
GGGCACACGTGGAGTT	0.07
GGACACACGTGTGGTT	0.23
AAATGCACGTGGTCTT	-0.18
AGATACACGTGGGGGA	-0.05
TTTGTCACGTGCGCTT	-0.13
AGTAGCACGTGTGAGA	0.06

Sequence	relative binding free energy [kcal/mol]
ATGCACACGTGTAGGT	0.07
TTCATCACGTGGTTAT	0.02
AGGATCACGTGGTTTT	0.21
AATTACACGTGATTTG	0.23
CGCTGCACGTGATGGG	-0.03
AGCTTCACGTGTGGAG	0.38
GGCGGCACGTGGGTCT	-0.15
TTGTTCACGTGCTACT	0.26
CTGAGCACGTGGAGTA	0.05
GATGCCACGTGTTATG	-0.02
GGTTTCACGTGGTCGC	0.31
ATGCGCACGTGATGTG	-0.1
AAGACCACGTGGGGGT	-0.26
TCGGTCACGTGGTTGC	0.1
CTTTGCACGTGAGTTT	0.12
TGGTGCACGTGTTAGT	0
AGAGGCACGTGGGGCG	-0.23
AGGGGCACGTGAGGTA	0.11
GATGTCACGTGACAGG	0.29
TACGTCACGTGAAGGG	0.32
AAGTACACGTGTTCAG	0.19
GTTGTCACGTGTGTCG	0.17
TGCGCCACGTGGGGCG	-0.21
TGGTTCACGTGTGGGC	0.27
ATAATCACGTGTGTTT	0.1

Sequence	relative binding free energy [kcal/mol]
CTAAGCACGTGGGGTT	-0.28
GATTACACGTGTGGAG	0.07
TTTAGCACGTGATAAT	0.18
GGTCGCACGTGTGATT	-0.11
GCATTCACGTGTGCGG	0.23
TTGTTCACGTGCTGAT	0.08
AGTGGCACGTGCAATG	-0.08
CGCGTCACGTGGGTCG	-0.01
CTTTGCACGTGTTGAC	0.19
TGAGGCACGTGATGAG	-0.1
TGGTTCACGTGTGTAG	0.4
AAGGGCACGTGGCCTT	-0.08
ATATTCACGTGTGTCA	0.31
ATGCGCACGTGGATGA	-0.03
TGTAGCACGTGGGAGT	-0.22
GTGGTCACGTGCAGGT	0.17
GCAGCCACGTGGGGTT	-0.13
ATGTGCACGTGTGTAT	-0.04
TGGGCCACGTGGGGTA	-0.14
TGTCTCACGTGGGTGA	0.03
AAGGCCACGTGGGTAG	-0.15
TGTGGCACGTGGAGAG	-0.11
TTCGACACGTGGTTTA	0.1
